Further values from the same series stand in other lists.
Tested on: 766 cancer cell lines
Test: Large-scale cell-line viability measurements (766 cancer cell lines, 72 h, AUC)
Type: cell-based, human
Settings: 72 hours
Protocol: Cell lines were treated for 72 hours with concentrations ranging from 66.4 μM-2 nM in 2-fold step dilutions.
To characterize cellular sensitivity to DNMDP further, 766 genomically characterized cancer cell lines were screened for DMNDP sensitivity at concentrations ranging from 66.4 μM to 2 nM in 2-fold dilution steps for 72 hours. From these cell lines, 22 cell lines were categorized as sensitive with a robust Z-score lower than −4, which represented multiple lineages including multiple melanoma cell lines, amongst others (Table 1).
The sensitivity of […] cancer cell lines (CCLs) was measured drawn from 23 different lineages to DNMDP. Each cell line was plated in its preferred media in white opaque 1536-plates at a density of 500 cells/well. After incubating overnight, DNMDP was added by acoustic transfer at 16 concentrations ranging from 66.4 μM-2 nM in 2-fold steps in duplicate (Labcyte Echo 555, Labcyte Inc., Sunnyvale, Calif.). After 72 hours treatment, cellular ATP levels were measured as a surrogate for viability (CELLTITERGLO®, Promega Corporation, Madison, Wis.) according to manufacturer's protocols using a ViewLux Microplate Imager (PerkinElmer, Waltham, Mass.) and normalized to background (media-only) and vehicle (DMSO)-treated control wells.
Concentration response curves were fit using nonlinear fits to 2- or 3-parameter sigmoid functions through all 16 concentrations with the low-concentration asymptote set to the DMSO-normalized value, and an optimal 8-point dose curve spanning the range of compound-sensitivity was identified. The area under the 8-point dose curve (AUC) was computed by numeric integration as a metric for sensitivity for further analysis. Similar sensitivity measurements have been obtained for a collection of 480 other compounds, enabling analyses that identify cell lines responding uniquely to DNMDP (see Broad Institute Cancer Therapeutics Response Portal, a dataset to identify comprehensively relationships between genetic and lineage features of human cancer cell lines and small-molecule sensitivities for complete list of compounds).

[1] = SCC9 (UPPER AERODIGESTIVE TRACT)
[2] = SEM (HAEMATOPOIETIC AND LYMPHOID TISSUE)
[3] = SKMM2 (HAEMATOPOIETIC AND LYMPHOID TISSUE)
[4] = SNU201 (CENTRAL NERVOUS SYSTEM)
[5] = SUDHL1 (HAEMATOPOIETIC AND LYMPHOID TISSUE)
[6] = SUPM2 (HAEMATOPOIETIC AND LYMPHOID TISSUE)
[7] = SW1783 (CENTRAL NERVOUS SYSTEM)
[8] = TALL1 (HAEMATOPOIETIC AND LYMPHOID TISSUE)
[9] = THP1 (HAEMATOPOIETIC AND LYMPHOID TISSUE)
[10] = X8MGBA (CENTRAL NERVOUS SYSTEM)
[11] = X697 (HAEMATOPOIETIC AND LYMPHOID TISSUE)

CCN(CC)c1ccc(C2=NNC(=O)CC2C)cc1[N+](=O)[O-] (centres unmarked) [DNMDP, 6-(4-(diethylamino)-3-nitrophenyl)-5-methyl-4,5-dihydropyridazin-3(2H)-one]
Robust Z-score (RT4 (URINARY TRACT)): −0.3783
DNMDP AUC (SCABER (URINARY TRACT)): 6.322
Robust Z-score (SCABER (URINARY TRACT)): −0.3282
DNMDP AUC [1]: 6.2351
Robust Z-score [1]: −0.4194
DNMDP AUC [2]: 4.7433
Robust Z-score [2]: −1.985
DNMDP AUC (SF295 (CENTRAL NERVOUS SYSTEM)): 6.4581
Robust Z-score (SF295 (CENTRAL NERVOUS SYSTEM)): −0.1853
DNMDP AUC (SH4 (SKIN)): 4.3672
Robust Z-score (SH4 (SKIN)): −2.38
DNMDP AUC (SHP77 (LUNG)): 6.5008
Robust Z-score (SHP77 (LUNG)): −0.1405
DNMDP AUC (SKLMS1 (SOFT TISSUE)): 6.5254
Robust Z-score (SKLMS1 (SOFT TISSUE)): −0.1147
DNMDP AUC [3]: 6.2396
Robust Z-score [3]: −0.4147
DNMDP AUC (SKOV3 (OVARY)): 6.2773
Robust Z-score (SKOV3 (OVARY)): −0.3751
DNMDP AUC (SKUT1 (SOFT TISSUE)): 6.3987
Robust Z-score (SKUT1 (SOFT TISSUE)): −0.2477
DNMDP AUC (SNU5 (STOMACH)): 5.5498
Robust Z-score (SNU5 (STOMACH)): −1.139
DNMDP AUC (SNU8 (OVARY)): 6.3089
Robust Z-score (SNU8 (OVARY)): −0.3419
DNMDP AUC [4]: 6.2618
Robust Z-score [4]: −0.3914
DNMDP AUC (SNU387 (LIVER)): 4.9639
Robust Z-score (SNU387 (LIVER)): −1.754
DNMDP AUC (SNU398 (LIVER)): 6.4206
Robust Z-score (SNU398 (LIVER)): −0.2247
DNMDP AUC (SNU449 (LIVER)): 4.752
Robust Z-score (SNU449 (LIVER)): −1.976
DNMDP AUC (SNU478 (BILIARY TRACT)): 6.3432
Robust Z-score (SNU478 (BILIARY TRACT)): −0.3059
DNMDP AUC (SNU503 (LARGE INTESTINE)): 4.5692
Robust Z-score (SNU503 (LARGE INTESTINE)): −2.168
DNMDP AUC (SNU685 (ENDOMETRIUM)): 5.206
Robust Z-score (SNU685 (ENDOMETRIUM)): −1.5
DNMDP AUC (SNU761 (LIVER)): 6.3819
Robust Z-score (SNU761 (LIVER)): −0.2653
DNMDP AUC [5]: 6.3444
Robust Z-score [5]: −0.3047
DNMDP AUC [6]: 6.3314
Robust Z-score [6]: −0.3183
DNMDP AUC (SW579 (THYROID)): 4.697
Robust Z-score (SW579 (THYROID)): −2.034
DNMDP AUC (SW837 (LARGE INTESTINE)): 6.5072
Robust Z-score (SW837 (LARGE INTESTINE)): −0.1338
DNMDP AUC (SW1116 (LARGE INTESTINE)): 6.5032
Robust Z-score (SW1116 (LARGE INTESTINE)): −0.138
DNMDP AUC [7]: 5.1161
Robust Z-score [7]: −1.594
DNMDP AUC (T98G (CENTRAL NERVOUS SYSTEM)): 6.2412
Robust Z-score (T98G (CENTRAL NERVOUS SYSTEM)): −0.413
DNMDP AUC [8]: 6.2742
Robust Z-score [8]: −0.3783
DNMDP AUC [9]: 6.4214
Robust Z-score [9]: −0.2238
DNMDP AUC (TOV21G (OVARY)): 6.4695
Robust Z-score (TOV21G (OVARY)): −0.1733
DNMDP AUC (TUHR10TKB (KIDNEY)): 6.3302
Robust Z-score (TUHR10TKB (KIDNEY)): −0.3196
DNMDP AUC (UACC62 (SKIN)): 3.9116
Robust Z-score (UACC62 (SKIN)): −2.858
DNMDP AUC (UACC257 (SKIN)): 6.3508
Robust Z-score (UACC257 (SKIN)): −0.2979
DNMDP AUC (UMUC1 (URINARY TRACT)): 4.9933
Robust Z-score (UMUC1 (URINARY TRACT)): −1.723
DNMDP AUC (VCAP (PROSTATE)): 5.5863
Robust Z-score (VCAP (PROSTATE)): −1.1
DNMDP AUC (VMCUB1 (URINARY TRACT)): 6.4199
Robust Z-score (VMCUB1 (URINARY TRACT)): −0.2254
DNMDP AUC (WM793 (SKIN)): 6.4939
Robust Z-score (WM793 (SKIN)): −0.1477
DNMDP AUC (WM1799 (SKIN)): 6.4744
Robust Z-score (WM1799 (SKIN)): −0.1682
DNMDP AUC [10]: 6.5012
Robust Z-score [10]: −0.1401
DNMDP AUC (X647V (URINARY TRACT)): 6.5257
Robust Z-score (X647V (URINARY TRACT)): −0.1144
DNMDP AUC [11]: 6.4674
Robust Z-score [11]: −0.1756

Reference: patent US11207320B2, “Compositions and methods for cancer expressing PDE3A or SLFN12” (The Broad Institute, Inc., priority 2015, dated 2021)
